Measurements taken from patent US20230321261A1, “AXL-SPECIFIC ANTIBODY-DRUG CONJUGATES FOR CANCER TREATMENT” (GENMAB A/S, priority 2016, published 2023).

What was measured:
[1] = target: T1, human-mouse chimeric AXL mutants (Homo sapiens, UniProt P30530, A273L/A287V/A310S/E275K/E281D/G297E/H300L/L233V/M269V/N230H/P276S/P329T/Q227R/Q272W/R229H/S285L/S298K/S319P/T259N/T312S/V309I); test: AXL domain specificity using human-mouse AXL chimeric molecules (flow cytometry); format: binding; conditions: 1 µg/mL antibody
T1 construct: constructs for expression of various full-length AXL variants were generated; expressed in transfected cells; host or cells: HEK293F

[2] = target: T2, human-mouse chimeric AXL mutants (Homo sapiens, UniProt P30530, A151P/A183V/D170T/D266N/G187S/H193Q/P184T/P188S/R148K/R190H/T149A/T182P/V194T); test: as above; format: binding; conditions: 1 µg/mL antibody
T2 construct: constructs for expression of various full-length AXL variants were generated; expressed in transfected cells; host or cells: HEK293F

[3] = target: T3, human-mouse chimeric AXL mutants (Homo sapiens, UniProt P30530, D266N/D95E/E92W/F120H/G122E/H123G/H68V/I97K/L118M/Q114E/Q124R/Q57E/S106A/S81N/T105S/T112A/Y132F); test: as above; format: binding; conditions: 1 µg/mL antibody
T3 construct: constructs for expression of various full-length AXL variants were generated; expressed in transfected cells; host or cells: HEK293F

[4] = target: T4, human-mouse chimeric AXL mutants (Homo sapiens, UniProt P30530, A349V/A358V/A407T/A411S/A425P/A431G/C405S/D266N/F350L/G397R/H352R/I340V/K439S/P444R/Q372R/Q387R/Q394R/Q436H/R386T/S398P/S400A/S442P/T343M/T443P/V434L); test: as above; format: binding; conditions: 1 µg/mL antibody
T4 construct: constructs for expression of various full-length AXL variants were generated; expressed in transfected cells; host or cells: HEK293F

AXL on A431 cells = target: T5, AXL on A431 cells (Homo sapiens, UniProt P30530); test: Antibody binding to A431 cells with or without Gas6 pre-incubation
T5 construct: AXL-positive A431 cells were incubated; endogenous in cells; host or cells: A431

[5] = target: T6, Gas6 binding to AXL on A431 cells (Homo sapiens, UniProt P30530); test: Gas6 binding to A431 cells pre-incubated with AXL antibodies
T6 construct: endogenous in cells; host or cells: A431
Description: Alternatively, A431 cells were pre-incubated with 10 µg/mL AXL antibodies (15 minutes, 4° C.) to assess if the AXL ligand Gas6 could still bind in presence of AXL antibodies. […] After washing three times in PBS/0.1% BSA/0.02% azide, cells were incubated with mouse anti-Gas6 IgG2a (R&D Systems; cat no. MAB885) at 4° C. for 30 min. After washing three times in PBS/0.1% BSA/0.02% azide, cells were incubated with FITC-labelled goat anti-mouse IgG (Dako, Heverlee, Belgium; cat no. F049702) at 4° C. for 30 min in the dark. Next, cells were washed twice in PBS/0.1% BSA/0.02% azide, resuspended in 120 µL PBS/0.1% BSA/0.02% azide and analyzed on a FACS Cantoll (BD Biosciences).
Binding curves were analyzed using non-linear regression (sigmoidal dose-response with variable slope) using GraphPad Prism V5.04 software (GraphPad Software, San Diego, CA, USA).
Therefore, binding of Gas6 to A431 cells that had been pre-incubated with 10 µg/mL AXL antibodies was tested as described in Example 2.

[6] = system: LCLC-103H xenograft tumors; test: LCLC-103H xenograft model; format: in vivo, SCID mice; conditions: 3 mg/kg (Example 13, FIG. 14A)
Description: 5 × 10^6 LCLC-103H (large cell lung carcinoma) tumor cells (obtained from Leibniz-Institut DSMZ-Deutsche Sammlung von Mikroorganismen und Zellkulturen GmbH (DSMZ)) in 200 µL PBS were injected subcutaneously in the right flank of female SCID mice. Starting 14-21 days after tumor cell inoculation, when the average tumor size was >100-200 mm^3 and distinct tumor growth was observed, a single injection with 1 mg/kg (20 µg/mouse) IgG1-AXL-vcMMAE antibodies (as described in Supplementary Example 1) or control (unconjugated IgG1-b12) was given intraperitoneally (100 µL/mouse). Tumor volume was determined at least two times per week. Tumor volumes (mm^3) were calculated from caliper (PLEXX) measurements as: 0.52 × (length) × (width)^2.
Tumor induction was performed by subcutaneous injection of 5 × 10^6 A431 or LCLC-103H tumor cells (both obtained from Leibniz-Institut - Deutsche Sammlung von Mikroorganismen und Zellkulturen GmbH (DSMZ)) in 200 µL PBS in the right flank of female SCID mice. Treatment was started 14-21 days after tumor cell inoculation, when the average tumor size was >100-200 mm^3 and distinct tumor growth was observed. […] Tumor volume was determined at least two times per week. Tumor volumes (mm^3) were calculated from caliper (PLEXX) measurements as: 0.52 × (length) × (width)^2.

A431 tumors = test: A431 xenograft model (high Gas6); format: in vivo, SCID mice; conditions: 3 mg/kg
Description: Tumor induction was performed by subcutaneous injection of 5 × 10^6 A431 or LCLC-103H tumor cells (both obtained from Leibniz-Institut - Deutsche Sammlung von Mikroorganismen und Zellkulturen GmbH (DSMZ)) in 200 µL PBS in the right flank of female SCID mice. Treatment was started 14-21 days after tumor cell inoculation, when the average tumor size was >100-200 mm^3 and distinct tumor growth was observed. Mice received a single injection or a total of 4 biweekly intraperitoneal injections with IgG1-AXL-vcMMAE ADCs or control antibody (unconjugated IgG1-b12), as indicated. Tumor volume was determined at least two times per week. Tumor volumes (mm^3) were calculated from caliper (PLEXX) measurements as: 0.52 × (length) × (width)^2.

B1: IgG1-AXL-061: AXL-specific human IgG1,κ antibody, VH SEQ ID NO:143, VL SEQ ID NO:144, Ig1 domain binding (antibody, listed as Homo sapiens, V domains shown)
VH: QVQLVQSGAEVKKPGASVKVSCKASGYAFTGYGISWVRQAPGQGLEWIGWISAYNGNTNYVQNLQDRVTMTTDTSTSTAYMELRSLRSDDTAVYYCARDHISMLRGIIIRNYWGQGTLVTVSS
VL: [skipping about 100 residues]
- binding to hsAXL-mmFN1 [1]: not affected
- binding to hsAXL-mmIg2 [2]: not affected
- binding to hsAXL-mmIg1 [3]: strongly reduced binding
- binding to hsAXL-mmFN2 [4]: not affected
- Antibody binding to A431 cells: Maximal binding in presence of Gas6 (% of binding in absence of Gas6) mean (s.d.) (AXL on A431 cells; pre-incubation with 10 µg/mL Gas6): 43 (28) %
- Antibody binding to A431 cells: EC50 w/o Gas6 (µg/mL) mean (s.d.) (AXL on A431 cells; without Gas6 pre-incubation): 0.15 (n.a.) µg/mL
- binding of Gas6 to A431 cells pre-incubated with antibody, compared to IgG1-b12 and medium controls ([5]; 10 µg/mL antibody): largely reduced
- Gas6 binding to A431 cells: Maximal binding in presence of AXL antibodies (% of binding in presence of control antibody) mean (s.d.) ([5]; pre-incubation with 10 µg/mL antibody, control antibody b12): 22 (8) %

B2: IgG1-AXL-061-vcMMAE (conjugate)
VH: B1 VH
VL: [skipping about 100 residues]
- anti-tumor activity in the LCLC-103H xenograft model [6]: tumor regression
- anti-tumor activity in the A431 xenograft model (A431 tumors): did not show anti-tumor activity
